In paper PMC12040169 (PLOS Biology, 2025):
This is one part of the list.

System: T1, C. trachomatis L2/434/Bu expressing GFP (CTL2-GFP)
T1 construct: L2/434/Bu GFP intracellular growth in HeLa cells
Parameters: species or system HeLa; C. trachomatis total inclusion area by high-content imaging, normalised to DMSO
Conditions: total inclusion area; 28.5 h, 10 µM; inhibitor
In short: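 Bulk GFP and resorufin signals were read first. Wells were then fixed, stained with Hoechst and imaged to detect GFP inclusions and host nuclei. MICs followed the previously described calculation.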

SMILES | % of control remaining
COC(=O)c1c(NC(=S)NCc2ccc(S(N)(=O)=O)cc2)sc2c1CCC(C)C2 (stereo not shown) [CBK267039] | 104.632
CCc1nc2c(OCc3ccccc3OC)cccn2c1N(C)C(=O)C(C)C [CBK147763] | 75.9845
Cc1ccc(Cl)cc1NC(=O)c1ccc(NCCN2C(=O)C3C4C=CC(C4)C3C2=O)c([N+](=O)[O-])c1 (stereo not shown) [CBK268357] | 101.701
Cc1ccc(C(=O)Nc2nc3ccc(S(=O)(=O)N(C)C)cc3s2)cc1 [CBK287603] | 93.7493
O=C(C1=C(O)C(=O)N(Cc2cccnc2)C1c1cccnc1)c1ccccc1 (stereo not shown) [CBK264522] | 102.29
CNC(=O)C1(Cc2ccccc2-c2cccs2)CCN(C(=O)Cc2ccccc2)CC1 [CBK285746] | 115.371
COc1ccccc1-c1nccnc1N(C)Cc1ccccc1 [CBK036774] | 128.82
O=C(Nc1ccccc1C(=O)O)c1ccccc1O [CBK012116] | 48.6581
COCCN(Cc1ccncc1)C(=O)c1cnc2ccnn2c1C [CBK306965] | 85.099
O=C(Nc1ccccc1C(=O)N1CCN(Cc2ccccc2)CC1)c1ccccn1 [CBK263512] | 84.9329
COC(=O)CN(c1ccc(Cl)cc1Cl)S(C)(=O)=O [CBK267654] | 101.758
COc1cc(C2N(Cc3ccccc3)CCCN2Cc2ccccc2)c([N+](=O)[O-])cc1OC [CBK265224] | 94.6901
O=c1[nH]c(SCc2c(Cl)cccc2Cl)nc2ccnn12 [CBK116145] | 89.1159
CCC(Cn1ccnc1)NS(=O)(=O)c1cc(-n2cccn2)ccc1OC (stereo not shown) [CBK307483] | 83.5632
CC(NC(=O)Cn1c(-c2nonc2N)nc2ccccc21)c1ccccc1 (stereo not shown) [CBK266006] | 121.483
Cc1ccc(S(=O)(=O)Nc2c(C(=O)N3CCN(C)CC3)sc3ncccc23)cc1[N+](=O)[O-] [CBK050025] | 103.654
C=Cn1cc(CN2C3CCC2CC(O)(c2ccc(C)cc2)C3)c(C)n1 (stereo not shown) [CBK283015] | 89.6051
O=C(O)c1cccc2c1C(=O)N(Cc1cccs1)C2 [CBK291246] | 96.083
NC(=O)CN1CC2(CCN(CCc3c[nH]c4ccccc34)CC2)c2ccccc21 [CBK126784] | 93.9426
Cn1c(=O)oc2ccc(C(=O)NCCN3CCCCC3CO)cc21 (stereo not shown) [CBK307594] | 52.6725
COc1ccc2[nH]c3c(c2c1)CCNC31CCN(Cc2cc(F)cc(F)c2)C1 (stereo not shown) [CBK039368] | 63.8858
Cc1ccc(/C(N)=N/OC(=O)CN(C)S(=O)(=O)c2ccc3ccccc3c2)cc1 [CBK267363] | 105.251
Cc1csc2c(NC(C)C)ncnc12 [CBK017059] | 60.0815
Cn1nccc1CCNS(=O)(=O)c1cccc(C(=O)N2CCCCC2)c1 [CBK307086] | 77.2154
COc1cccc(CN2CCCC(c3nc(C)n4ccccc34)C2)c1 (stereo not shown) [CBK282989] | 113.258
CC(C)CCN(Cc1ccc(-c2ccc(S(C)(=O)=O)cc2)nc1)C1CCN(C(=O)OC(C)(C)C)CC1 [CBK165138] | 100.948
COc1ccc(C)cc1S(=O)(=O)N(C)CC(=O)Nc1cccc(SC)c1 [CBK267510] | 93.9824

SMILES | % of control remaining
c1ccc2c(c1)CSCC2Oc1cncc(N2CCNCC2)n1 (stereo not shown) [CBK172356T] | 59.5071
O=C(O)c1cccc(NS(=O)(=O)c2ccc(F)c(C(F)(F)F)c2)c1 [CBK155693] | 101.509
C=Cn1ncc(CN2CCCC(O)(c3ccc(F)cc3)CC2)c1C (stereo not shown) [CBK284837] | 87.3077
Cc1cc(NC(=O)CN2CC=C(c3ccc(C)o3)CC2)no1 [CBK283608] | 90.5342
CCNC(=O)C1(NC(=O)Cc2cn3cccc(C)c3n2)CCCCC1 [CBK304933] | 67.2819
O=C(Nc1cc(F)ccc1N1CCCC1)c1ccc(=O)n(CC(=O)N2CCCCC2)c1 [CBK286083] | 103.165
Cn1ncc2c1CCCN(C(=O)CCc1ccccc1F)C2 [CBK285255] | 90.1166
FC1(F)Oc2ccc(Nc3cncc(-c4cccs4)n3)cc2OC1(F)F [CBK065727] | 125.38
CC(=O)Nc1cccc(-c2cncc(NCCc3c[nH]c4ccccc34)n2)c1 [CBK037820] | 87.8037
Cc1ccccc1-c1noc(CNC(Cn2ccnc2)C(C)C)n1 (stereo not shown) [CBK307560] | 80.037
O=C(c1ccco1)N1CCC[C@H]1[C@H](O)c1nc2ccccc2s1 [CBK284290] | 83.9954
c1ccc2c(c1)OCc1nnc(CCN3CCCCC3)n1-2 [CBK005285] | 78.9131
CCOCCCC(=O)N1CCn2c(nnc2-c2cncc(Br)c2)C1 [CBK304764] | 32.1044
CCCn1c(NC(=O)C(C)Oc2ccc(Cl)cc2Cl)nc2ccccc21 (stereo not shown) [CBK296979] | 41.4134
COCc1cn(C[C@H]2CC3CCN2C[C@@H]3C(=O)NC2CC2)nn1 (stereo partly shown) [CBK288835] | 83.7469
c1ccc(N2CCN(c3nc(-c4ccoc4)cn4ccnc34)CC2)nc1 [CBK066522] | 73.4845
Cn1nc(C(=O)NCC2(c3cccc(F)c3)CCCC2)ccc1=O [CBK281437] | 102.595
COc1nc(NCCc2ccc(OC)c(OC)c2)nc(OC)n1 [CBK266304] | 122.924
CCOc1ccc(Oc2nc(N(C)C)nc(N3CCOCC3)n2)nn1 [CBK269585] | 70.7373
O=C(N[C@H]1CC[C@H](O)CC1)C1(Cc2cc(-c3ccc(F)cc3F)no2)CCOCC1 [CBK286352] | 115.472
O=C(CSCc1nc2ccccc2c(=O)n1-c1ccccc1Cl)Nc1ccccc1 [CBK070895] | 89.9682
Cn1c(CN2CCN(C3CCCCC3)C(=O)C2)nc2ccccc21 [CBK281893] | 96.9705
N=C(N)SCc1csc(-c2ccc(Br)cc2)n1 [CBK017064C] | 23.5729
Nc1ncc(-c2ccco2)nc1-c1ccc(F)c(Cl)c1 [CBK064013] | 161.111
Cc1sc(-c2cccs2)nc1OC(=O)c1cccc(C(F)(F)F)c1 [CBK067748] | 81.5698
O=C1Nc2cc(Cl)ccc2C(=O)N2CCN(C(=O)C3CCCCC3)C[C@H]12 [CBK289586] | 112.161
CC1(CC(=O)Nc2ccccc2)NC(=S)N(c2ccccc2)N1 (stereo not shown) [CBK265534] | 70.212

SMILES | % of control remaining
CCCCn1nccc1NC(=O)NC(C)c1n[nH]c(C)n1 (stereo not shown) [CBK307486] | 77.6118
CCOC(=O)CN1CCN(c2nccnc2Oc2ccc(OC)c(OC)c2)CC1 [CBK083052T] | 70.2061
Cc1cc(C(=O)NCc2ccc(-c3csnn3)cc2)n[nH]1 [CBK149314] | 93.3127
O=C(CC1S/C(=N/N=C/c2ccc(-c3ccc(Br)cc3)o2)NC1=O)Nc1ccccc1 (stereo not shown) [CBK264499] | 108.071
CCc1c(C)sc(NC(=S)Nc2cnccn2)c1C(=O)OC [CBK267088] | 83.4142
Cc1cc(C)c2nn[nH]c2c1CN1CCCC1 [CBK018196] | 83.0434
Cn1c(=O)n(C)c2cc(CNCc3ccc(C(=O)O)cc3)ccc21 [CBK286538] | 81.9581
O=C(CSc1nnc(-c2cccnc2)n1Cc1ccccc1)Nc1ccc(Br)cc1 [CBK267527] | 104.83
Cc1cccnc1NC(=O)c1ccc(NCCc2ccccc2)c([N+](=O)[O-])c1 [CBK269543] | 60.4207
Cn1cc(C(=O)N2CCc3nc(-c4cccc(F)c4)sc3C2)cn1 [CBK281910] | 144.981
COc1ccc(S(=O)(=O)Nc2nccc(-c3ccc(CN4C(=O)CCC4=O)cc3)n2)cc1 [CBK067438] | 92.2031
Cc1cc(OCC(O)CN2CCN(CCO)CC2)cc(C)c1Cl (stereo not shown) [CBK278248C] | 82.5498
CCN(CC)C(=O)c1cnoc1-c1ccc(Br)cc1 [CBK153725] | 84.2444
c1ccc2oc(-c3cncc(N4CCN(CCN5CCCC5)CC4)n3)cc2c1 [CBK066052] | 111.524
CN(C)S(=O)(=O)N(CC(=O)NCC1CCCO1)c1ccccc1 (stereo not shown) [CBK268192] | 85.6969
O=C1c2cccc3cccc(c23)C(=O)N1CC1CCN(CC(O)COCC2COc3ccccc3O2)CC1 (stereo not shown) [CBK074412C] | 90.3445
O=C(O)c1[nH]c2ccccc2c1NS(=O)(=O)c1cc(Cl)sc1Cl [CBK049886] | 85.0042
O=C(Nc1ccc(OC(F)(F)F)cc1)c1cnc(-c2ccc(Cl)cc2)c(-c2ccco2)c1 [CBK037456] | 77.5263
Fc1ccc(NC(=S)NCC2CC2)c(F)c1 [CBK011398] | 52.2408
COC(=O)c1ccc(S(=O)(=O)N2CCc3ccccc3C2)cc1 [CBK068696] | 116.345
O=C1NCCNC(=O)C2(CCCCOc3ccccc31)CCN(C(=O)c1ccnnc1)CC2 [CBK292105] | 91.9277
Cc1cc(C(=O)Nc2cccc(S(=O)(=O)N3CCOCC3)c2)sc1-c1ccccc1 [CBK268185] | 27.0062
O=C(N/N=C/c1ccc(O)cc1)C(=O)N/N=C/c1ccc(O)cc1 [CBK261625] | 99.371
CCOc1ccccc1N1C(=O)CC(Sc2nc(-c3ccccc3)c3cc(Cl)ccc3n2)C1=O (stereo not shown) [CBK265405] | 85.487
CCc1c(S(=O)(=O)CCC(=O)OC)c2ccccc2[n+]([O-])c1C [CBK155469T] | 83.5378
